For 84 compounds, GI50 and TGI results are on record in PubChem BioAssay (NCI).

Molecules are shown by their SMILES. “And” between values parts separate entries of the source, which are not always exact repeats. Equal values may be shown once.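 Grown in 96-well plates, cells were treated for 48 hours with each compound at five concentrations. Insufficient inhibition: endpoint recorded as highest concentration tested. GI50: concentration for 50% inhibition of growth. TGI is the concentration that stops growth completely.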 Where only a bound is given, the exact number is not on record here.

The experiment deals with NCI-H322M lung. In words: growth of human tumour cells (NCI), 48 h.
Consider `CNC(=O)c1cncc(/C=C/c2c(Cl)cccc2Cl)c1`, for which the GI50 is above 25 µM and the TGI is above 25 µM.

As for `O=c1[nH]cnc2c1ncn2CCCCO`, the TGI is above 100 µM. The same measure, in the same setting: for `CC(C)=CCc1cc(C2COc3cc4c(c(O)c3C2=O)C=CC(C)(C)O4)c(O)cc1O` (configuration not stated) the value was 30.9 µM. The same measure, in the same setting: next, `C=CC[C@H]1[C@H](O[Si](C)(C)C(C)(C)C)C=CC(=O)[C@@H]1CC(=O)OCC`: 28.1 µM. With `CN(C)N=Nc1nn(C(=O)Nc2ccc(Cc3ccccc3)cc2)c2ccccc12`, the GI50 was above 100 µM and the TGI is above 100 µM. `COc1ccc2c(c1)C=C1CSCC3=Cc4cc(OC)ccc4OC13O2`: the GI50 is 0.729 µM and the TGI is above 100 µM. Take `O=C(O)CO/N=C1/C(c2c(O)[nH]c3ccccc23)=Nc2ccccc21`: the TGI is above 100 µM. Same read-out and setting: for `O=C1/C(=C/c2ccc(Cl)cc2)Sc2scc(-c3cccc([N+](=O)[O-])c3)[n+]21` the value was 30.9 µM; for `Cc1ccc(-n2cc(-c3ccc(Cl)cc3)c3c2N=CN2NC(c4cccs4)=NC32)cc1` (configuration not stated), above 100 µM. Compound `COC(=O)c1nc(N)nc(C(=O)OC)c1C(=O)c1ccccc1` displayed a TGI above 100 µM. The same measure, in the same setting: next, `Cc1nc(Nc2nc3ccccc3[nH]2)[nH]c(=O)c1CCO`: above 100 µM. On the same count and under the same terms, next, `O=C1NC(c2ccccc2)N=C2Oc3ccccc3C=C12` (configuration not stated): above 47 µM; `Cc1ccc(F)c2c(=O)cc(-c3ccccc3)[nH]c12`: above 100 µM; `Cc1cc(Cl)ccc1NC(=O)C(=O)Cc1occc(=O)c1O`: above 100 µM. Same read-out and setting: next, `O=c1[nH]c2c(c3ccccc13)CCc1ccccc1-2`: above 100 µM. The compound `Cc1ccc(N2C(=O)C(=O)N(/N=C3\C(=O)Nc4ccccc43)C2=S)cc1` registered a TGI above 100 µM. On the same count and under the same terms, next, `CC(C)(C)N=c1n(C(C)(C)C)oc(=O)n1-c1ccccc1`: above 50 µM; `CC(=O)O/N=C/c1cc2c(cc1Br)OCO2`: above 349 µM. Consider `COc1cc2nc(N3CCC[C@@H](NC4=CC(=O)c5ccccc5C4=O)C3)nc(N)c2cc1OC`, for which the GI50 was 1.87 µM and the TGI came to 3.79 µM.

As for `O=C1NN=CN2C(=O)CCC12` (configuration not stated), the TGI is above 100 µM. The same measure, in the same setting: next, `O=C(O)c1cc(=O)c2cc(C(=O)c3cccs3)c(Cl)c(Cl)c2o1`: above 100 µM; `CCc1n[nH]c(=S)n1/N=C\c1ccc(-c2ccccc2[N+](=O)[O-])o1`: above 100 µM. The same measure, in the same setting: next, `CC[C@H](C)[C@H]1NC(=O)[C@@H](NC(=O)[C@@H](CC(C)C)N(C)C(=O)C2CCCN2C(=O)[C@H](C)O)[C@@H](C)OC(=O)[C@H](Cc2ccccc2)N(C)C(=O)[C@@H]2CCCN2C(=O)[C@H](CC(C)C)NC(=O)[C@@H](C)C(=O)[C@H](C(C)C)OC(=O)C[C@@H]1O` (some centres not stated): 0.0481 µM; `CN(C)Cc1[nH]c2ccccc2c1C(=O)c1ccccc1`: above 100 µM; `CC1CC(=O)c2c(ccc3c2C(=O)c2cccc(O)c2C3=O)C1` (configuration not stated): 51.5 µM. Still for that read-out and setting: next, `Cn1nc(C(=O)N2CC(CCl)c3c2cc([N+](=O)[O-])c2ccccc32)cc1NC(=O)Nc1cc(C(=O)N2CC(CCl)c3c2cc([N+](=O)[O-])c2ccccc32)nn1C` (configuration not stated): above 100 µM. With `O=C1NC(SCc2ccc(F)cc2)=N/C1=C/c1cccc(OCc2ccc(Cl)cc2)c1`, the GI50 was above 100 µM and the TGI was above 100 µM. As for `O=C(O)CCc1nc2cc3ccccc3cc2[nH]c1=O`, the TGI was above 100 µM. Still for that read-out and setting: next, `NC(=S)N/N=C/c1ccc(OC(=O)COc2ccccc2Cl)cn1`: above 100 µM.

Take `COc1ccc2c(c1OC)C(=O)O[C@@H]2[C@H]1c2c(c(Br)c3c(c2OC)OCO3)CCN1C`: the GI50 was 16.9 µM and the TGI is above 100 µM.

On to `COC(=O)C1C(/C=C/c2ccoc2)ON2CCC[C@@H]12` (some centres not stated), for which the TGI is above 100 µM. Still for that read-out and setting: next, `CC(=O)Nc1nnc(S(=O)(=O)NC(=S)Nc2ccc(Cl)cc2)s1`: above 100 µM.

For `Cn1ncnc1C1c2n[nH]c(=O)c3cc(F)cc(c23)NC1c1ccc(F)cc1` (configuration not stated), the GI50 was above 100 µM and the TGI is above 100 µM. With `CCN1C(=O)CS/C1=N\NC(=O)CSc1nc2ccccc2c(=O)n1CC`, the TGI is above 100 µM. On to `O=c1[nH]nc(-c2ccccc2)c2c(-c3ccccc3)onc12`, for which the GI50 is 4.97 µM and the TGI was above 100 µM. The like results for `O=C(NN1C(=O)CSC12CCC(c1ccccc1)CC2)c1[nH]c2ccc(F)cc2c1-c1ccccc1` (configuration not stated) were, in that order, 18.1 µM and 34.7 µM. Take `Nc1nc(Cl)nc2c1ncn2[C@@H]1O[C@H](COS(N)(=O)=O)[C@@H](O)[C@H]1O`: the GI50 was 0.0126 µM and 0.0168 µM; the TGI is 0.0608 µM and 0.0595 µM. For the compound `NC(=O)N/N=C(\CCC(=O)N(Cc1ccccc1)Cc1ccccc1)CC(=O)c1ccc(F)cc1`, the TGI was above 100 µM.

Take `CCCC(CCC)C(=O)OCC1(CO)C/C(=C\c2ccc(C(F)(F)F)cc2)C(=O)O1` (configuration not stated): the GI50 was 13 µM and the TGI is 27.8 µM. The like results for `O=CN1N=C(c2ccc(Nc3ccnc4cc(Cl)ccc34)cc2)CC1c1ccc(Cl)cc1` (configuration not stated) were, in that order, above 100 µM and above 100 µM.

`CN1CCCC(C(=O)OCC(=O)C2(O)CCC3C4CCC5=CC(=O)CCC5(C)C4C(O)CC32C)C1` (configuration not stated) displayed a TGI of 66.2 µM. The same measure, in the same setting: next, `CC(C)(CN)SCc1ccccc1`: above 100 µM; `CCCOP(=S)(N1CC1)N1CC1`: above 100 µM. On the same count and under the same terms, for `CC1(C)CC2(C)ON=C(c3ccccc3)N2c2ccccc2N1` (configuration not stated) the value was above 100 µM. Consider `CCN(CC)CCC(=O)O[C@H]1CC[C@H](CC(C)[C@H]2CC(=O)C(C)C=C(C)[C@H](OC(=O)CCN(CC)CC)C(OC)C(=O)[C@@H](C)CC(C)/C=C/C=C/C=C(C)C(OC)CC3CC[C@H](C)[C@](O)(O3)C(=O)C(=O)N3CCCCC3C(=O)O2)CC1OC` (some centres not stated), for which the GI50 is 2.8 µM; the TGI was > 10 µM and 5.31 µM. For `CC(=O)C1=NN(c2ccccc2)C2(S1)SC(c1ccccc1)(c1ccccc1)c1ccccc12` (configuration not stated), the TGI is above 100 µM.

On to `Cc1ccc([N+](=O)[O-])c2c(NCCC[N+](C)(C)[O-])ccnc12`, for which the TGI is above 100 µM. Same read-out and setting: for `COC(=O)C1=C(O)C(C(=O)OC)[C@@]2(O)[C@@H](C(=O)OC)CC[C@@H]1[C@@H]2C(=O)OC` (some centres not stated) the value was above 100 µM. Consider `COc1ccc(CN=C(N)N=C(N)N)cc1OC`, for which the GI50 is 369 µM and the TGI is above 1000 µM.

The compound `CC1=C(C)C(=O)C(C2=C(C3=CC(=O)C(C)=C(C)C3=O)C(=O)c3ccccc3C2=O)=CC1=O` came in with a TGI of 21.5 µM. On to `Cc1ccccc1NC(=O)c1cc2ccccc2cc1O`, for which the GI50 was 3.25 µM and the TGI is above 100 µM.

The compound `C=CCC1C2CCC(O[Si](C(C)C)(C(C)C)C(C)C)(C(C(=O)OC)C2)C1O` (configuration not stated) registered a TGI above 100 µM. Consider `CCc1c2c(nc3ccc(OCc4ccc(B5OC(C)(C)C(C)(C)O5)cc4)cc13)-c1cc3c(c(=O)n1C2)COC(=O)[C@]3(O)CC`, for which the GI50 was 0.101 µM and the TGI was above 25.4 µM. Consider `COc1ccc(C2C(Cl)C(=O)N2NC(=O)c2ccccc2O)cc1OC` (configuration not stated), for which the TGI was above 100 µM. For `Cc1ncc(CO)c(C=NCCCCCCN=Cc2c(CO)cnc(C)c2O)c1O`, the TGI is above 100 µM. Still for that read-out and setting: for `COC1C(O)C(C)OC(O[C@@H]2C[C@H]3CC[C@@H]4[C@H](CC[C@]5(C)[C@@H](C6=CC(=O)OC6)CC[C@]45O)[C@@]3(C)[C@H](O)C2)C1O` (some centres not stated) the value was 0.575 µM; for `CCOC(=O)NC(=S)NC(C)c1ccccc1` (configuration not stated), above 100 µM; for `Nc1cc(N)c(N=Nc2cccc3c(S(=O)(=O)O)cccc23)cc1N=Nc1cc([N+](=O)[O-])ccc1O`, above 100 µM. Still for that read-out and setting: for `COc1ccc(/C=N\O[Si](C)(C)C(C)(C)C)cc1O[Si](C)(C)C(C)(C)C` the value was 30.3 µM; for `COC(=O)CCC(C)[C@H]1CCC2C3C(C[C@H](OC(C)=O)[C@@]21C)[C@@]1(C)CCC2(C[C@H]1C[C@H]3OC(C)=O)OOC1(CCCCC1)OO2` (some centres not stated), above 100 µM; for `c1ccc(CSC(SCc2ccccc2)c2ccc3c(c2)OCO3)cc1`, above 10 µM. Still for that read-out and setting: for `S=C(Nc1cccc(C2(N3CCCCC3)CCCCC2)c1)Nc1cccc(C2(N3CCCCC3)CCCCC2)c1` the value was above 100 µM; for `Nc1nc(NCCOCP(=O)(O)O)c(N)c(=O)[nH]1`, above 100 µM; for `COc1cc(C2S/C(=C/c3ccccc3)C(=O)N2c2ccccc2Cl)cc(OC)c1OC` (configuration not stated), 66.8 µM. `COC(=O)[C@@H]1[C@H](O)CC[C@H]2[C@@]1(C)CC[C@@H](C)[C@]2(COC(C)=O)CC(=O)c1ccoc1` returned a TGI above 50 µM. In the case of `CN(C)C(=S)SCC(N)=O`, the TGI is above 100 µM.

In turn, `CC1(C)N=C(Oc2ccccc2)n2nccc2N1` yielded a TGI above 100 µM. `O=C1OC(OC/C(Br)=C(/Br)COC2OC(=O)C(Cl)=C2Cl)C(Cl)=C1Cl` (configuration not stated) gave a TGI of 51.7 µM. On the same count and under the same terms, for `COc1ccc(N2C(=O)C3c4[nH]c5ccc(OCc6ccccc6)cc5c4C4CCC(C(C)C)CC4C3C2=O)cc1` (configuration not stated) the value was above 100 µM; for `Clc1ccc(/C=C/c2nc(Cl)c(-c3ccc(Cl)cc3)c(Cl)n2)cc1`, above 100 µM.

Regarding `Nc1ccccc1C#C/C=C\C#Cc1ccccc1F`, the GI50 was 7.34 µM and the TGI came out at 35.2 µM. The like results for `O=C1c2ccn(CCCCN(CCO)CCO)c2C(=O)c2c1c(O)c1ccccc1c2O` were, in that order, 6.84 µM and 23.8 µM. `CCSC(=O)C1(C)OC2CCCCC2C1=O` (configuration not stated): the TGI was above 100 µM.

On to `COc1ccccc1N1C(=O)CC(=O)N(C(=O)CCCCCCCCC(=O)N2C(=O)CC(=O)N(c3ccccc3OC)C2=S)C1=S`, for which the TGI is above 100 µM. On the same count and under the same terms, next, `COc1nc(OC)nc(Sc2ccc(Sc3ccc(Sc4nc(OC)nc(OC)n4)cc3)cc2)n1`: above 100 µM. The same measure, in the same setting: next, `CC1=NN(c2ccccc2)C(=O)C1N=Nc1ccc(S(N)(=O)=O)cc1` (configuration not stated): above 100 µM. Same read-out and setting: for `Oc1ccc(Cn2c(-c3ccc(O)cc3)nc3ccccc32)cc1` the value was above 100 µM; for `CSc1nc(-c2ccc(Cl)cc2)c(C#N)c(=O)[nH]1`, above 100 µM. `C(=N/NC1=NCCN1)/c1c2ccccc2c(/C=N\NC2=NCCN2)c2ccccc12`: the TGI is 0.68 µM and 0.735 µM and 0.81 µM.

For `COC(=O)CNCC1OC2OC(C)(C)OC2C1N=[N+]=[N-]` (configuration not stated), the TGI was above 100 µM. Still for that read-out and setting: next, `C[N+]12CCCCC1C(CN1C(=O)c3ccccc3C1=O)CCC2` (configuration not stated): above 100 µM.

`C#CC(O)Cc1ccc(OC)c2occc12` (configuration not stated) returned a TGI above 100 µM. The same measure, in the same setting: for `CCOC(=O)/C=C1\Oc2ccccc2C1(C)O` (configuration not stated) the value was above 100 µM; for `COC(=O)C1(C)OC(C)=NC1(C(=O)OC)C(=O)OC` (configuration not stated), above 100 µM.
